Data published in PubChem BioAssay (NCI).
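48-hour exposure; five concentrations; linearly interpolated endpoints. Here, GI50 denotes the concentration required for 50% inhibition of growth.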 A number of entries come with more than one value. The list is limited to them. There may be further records. Records of one sample usually come from different ranges of test concentrations, which the source does not state; some values may only mark the edge of a range.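 TGI: total growth inhibition.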

Experiments:
Test in all cases: DTP human tumour cell line panel, 48 h
NCI-H460 lung = system: NCI-H460 lung
ACHN renal = system: ACHN renal
CAKI-1 renal = system: CAKI-1 renal
HT29 colon = system: HT29 colon
NCI-H226 lung = system: NCI-H226 lung
MDA-MB-231 breast = system: MDA-MB-231 breast
SNB-19 CNS = system: SNB-19 CNS
A498 renal = system: A498 renal
MOLT-4 leukemia = system: MOLT-4 leukemia
HL-60(TB) leukemia = system: HL-60(TB) leukemia
SR leukemia = system: SR leukemia
K-562 leukemia = system: K-562 leukemia
SW-620 colon = system: SW-620 colon
HCT-116 colon = system: HCT-116 colon
RPMI-8226 leukemia = system: RPMI-8226 leukemia
UACC-62 melanoma = system: UACC-62 melanoma

In the case of `COc1cccc2c1C(=O)c1c(O)c3c(c(O)c1C2=O)CC(O)(C(=O)CO)CC3OC1CC(N2CCOCC2C#N)C(O)C(C)O1` (stereo unspecified), the TGI (NCI-H460 lung) is reported as < 0.1 nM and 15 µM and the TGI (ACHN renal) is reported as < 0.1 nM and > 100 µM.
`C[C@@H]1Nc2cc(NC(=O)OCCF)nc(N)c2N=C1c1ccccc1` was tested, and the TGI (CAKI-1 renal) was < 0.1 nM and > 100 µM, the TGI (HT29 colon) was < 0.1 nM and 3.23 µM and the TGI (NCI-H226 lung) was < 0.1 nM and > 100 µM. The TGI (MDA-MB-231 breast) was < 0.1 nM and > 100 µM, the TGI (SNB-19 CNS) was 335 nM and > 100 µM and the TGI (A498 renal) was < 0.1 nM and > 100 µM.
In the case of `CC1=CC(=O)C=CC1=O`, the TGI (MOLT-4 leukemia) is reported as 7.73 µM [1 test] and 80.3 µM [mean of 2 tests], the TGI (HL-60(TB) leukemia) is reported as 5.16 µM [1 test] and 80.4 µM [mean of 2 tests] and the TGI (SR leukemia) is reported as 6.39 µM [1 test] and 263 µM [mean of 2 tests]. For the same compound, the TGI (K-562 leukemia) was 7.59 µM [1 test] and 175 µM [mean of 2 tests].
`COc1cc(Cc2nccc3cc(OC)c(OC)cc23)c(C(C)=O)cc1OC` was tested, and the GI50 (SW-620 colon) was 71.9 µM, > 750 µM [1 test] and 148 µM [mean of 4 tests], the TGI (HCT-116 colon) was > 750 µM [1 test] and 65.3 µM [mean of 3 tests] and the GI50 (RPMI-8226 leukemia) was 38.8 µM, > 750 µM [1 test] and 118 µM [mean of 3 tests]. For the same compound, the GI50 (UACC-62 melanoma) was 68.6 µM and > 750 µM.
